Experimental data from the supplement of paper PMC10986608.
The other results are listed elsewhere or left out. Single values are uncertain, as repeats are few or missing.

What follows are molecules tested on Candida albicans DPL-15 (assay: growth (OD600) after compound treatment (apparently relative to screen median) (relative growth (fraction; screen median 1.02)); DPL-15 is a caspofungin-resistant clinical isolate; higher = more fungal growth (less antifungal activity)). Conditions: 25 µM; RPMI 1640; 48 h; 30 °C.

Row | Compound | growth
1 | O=C(c1c(O)cc(O)cc1Nc1ccnn1C1CCCCC1)N1Cc2cccnc2C1 | 1.11
2 | COc1ccc(N2C(=O)c3[nH]nc(CC(C)C)c3[C@H]2c2cccc(C(F)(F)F)c2)cn1 | 0.87
3 | COC(=O)c1cc2c(c3c4cc(C)ccc4n(S(=O)(=O)c4ccc(OC)cc4)c13)C(=O)N(Cc1ccccc1)C2 | 1.15
4 | COc1ccc2c(=O)cc(-c3ccccc3)oc2c1OCC=C(C)C | 1.05
5 | COC(=O)C1NC(=O)C(Cc2ccccc2)N(C)C1=O (centres undefined) | 1.06
6 | Clc1cccnc1CCCc1ccccc1 | 1.11
7 | C=CCN1C(=O)C2=C(C(C(C)C)=NCCN2)C1c1ccc(Br)cc1 (centres undefined) | 1.07
8 | COc1ccc2c(=O)c3cccc(C)c3oc2c1OCC=C(C)C | 1.15
9 | CC(C)=CCc1cc(OCC(=O)NCC(=O)NCc2ccc(O)cc2)cc2oc3cccc(O)c3c(=O)c12 | 1.04
10 | COc1ccc2c(c1)CCN2CC1CCCN(CCc2ccccc2)C1 (centres undefined) | 0.757
11 | COC(=O)c1[nH]c2ccc(OC)cc2c1[C@]12CCN(C(=O)c3ccc(S(C)(=O)=O)cc3)[C@H]1Nc1ccccc12 | 0.966
12 | CCCCS(=O)(=O)N1CCCc2nc(CC)c(CC)cc21 | 0.927
13 | COC(=O)C1=C(C)NC(=O)N(C(C)=O)C1c1ccccc1 (centres undefined) | 1.06
14 | COc1ccc2c(c1)[C@@H](NS(=O)(=O)c1ccccc1)[C@H](C)[C@H]2c1ccccc1 | 1.08
15 | COc1cccc2c1c(=O)c(O)c(-c1ccc(Br)cc1)n2C | 0.485
16 | O=C(/C=C/c1ccc(Br)cc1)c1c(O)cc(F)cc1OCC(F)(F)F | 1.09
17 | C[C@@H]1/C=C/CC(=O)N[C@H](c2ccc3ccccc3c2)[C@H](C)/C=C/CC(=O)N[C@@H]1c1ccc2ccccc2c1 | 0.975
18 | COc1ccc(C[C@H]2COC(=O)[C@@H]2Cc2ccc(OC)c(OC)c2OC)c(OC)c1OC | 1.09
19 | CC(C)(C)NS(=O)(=O)OCC1CCC1 | 1.22
20 | C=CCN1C(=O)C2=C(C(C)=NCCN2)C1c1ccc(Br)cc1 (centres undefined) | 1.12
21 | Brc1cc2c3c(ccc4c3c1OCO4)OCO2 | 1.03

Row | Compound | growth
22 | COC(=O)[C@@]12Oc3ccc(-c4ccccc4SC)c(O)c3C(=O)C1=C(N)C[C@H](C)[C@H]2O | 1.06
23 | COc1ccc(C2NC(=O)N3CCC=CC3=C2C(C)=O)c(F)c1 (centres undefined) | 0.972
24 | COC[C@@H](O)[C@H]1OCc2c(c3cc(C(F)(F)F)ccc3n2S(=O)(=O)c2ccc(C)cc2)[C@@H]1/C=C/c1ccccc1 | 0.875
25 | COC(=O)C1=C(C(=O)OC)[C@@H]2Nc3ccccc3[C@@]23C[C@@H](C(=O)OC)NC3=N1 | 1.14
26 | C=CCN1C(=O)c2[nH]nc(C)c2C1c1ccc(Br)cc1 (centres undefined) | 0.967
27 | COc1ccccc1Cn1nc(C)c2c1C(=O)NC2c1ccc(C)cc1 (centres undefined) | 0.872
28 | OC(CN1CCCc2nc(-c3ccc(Br)cc3)ccc21)CN1CCCc2nc(-c3ccc(Br)cc3)ccc21 | 0.935
29 | C#CCC(C)(C)CNC(=O)CC(O)CNC(=O)c1cccc(/C=N/NS(=O)(=O)c2ccc(C)cc2)c1 (centres undefined) | 1.07
30 | COC(=O)C1=C(CCl)NC(=O)NC1c1ccccc1 (centres undefined) | 1.15
31 | COC(=O)c1cc(O)c(C(C)(C)C)c(O)c1 | 0.983
32 | CC(C)Cn1nccc1Nc1cc(O)cc(O)c1C(=O)N1Cc2ccccc2C1 | 0.99
33 | COCOc1c(C)c(O)c(C(=O)OC)c(O)c1C | 1.02
34 | COC(=O)[C@@H]1[C@H](C(=O)OC)[C@@H](c2ccc(OC)cc2)[C@H]1c1ccc(OC)cc1 | 0.892
35 | COc1cccc2c(=O)c3cccc(C(=O)NCCCN4CCCCC4C)c3[nH]c12 (centres undefined) | 1.11
36 | CCNC1=NC(c2ccccc2C(F)(F)F)C(C(=O)OC)=C(C)N1C (centres undefined) | 1
37 | Cc1cc(O)c2c3c4c(cc(O)c13)O[C@H]1OCCC[C@H]1[C@H]4OC2=O | 0.979
38 | O=S(=O)(Nc1ccc(C(F)(F)F)cc1)N1CCOCC1 | 1.26
39 | C=CC[C@@H](CC1(CC=C)C(=O)C(C(=O)c2ccccc2)=C(O)C=C1OC)C(=C)C (some centres undefined) | 1.07
40 | COc1ccc(N2C(=O)c3[nH]nc(CC(C)C)c3C2C2CCCC2)cc1 (centres undefined) | 1
41 | COc1ccc(C(=O)C(OCc2ccccc2)C(=O)c2c(O)cc(OC)cc2OC)cc1 (centres undefined) | 1.12
42 | COc1cc2c3c4c(c(O)cc(C)c14)C(=O)O[C@@H]3[C@@H]1CCO[C@]1(c1ccc([N+](=O)[O-])cc1)O2 | 1.04

Row | Compound | growth
43 | CC(C)Cc1n[nH]c2c1C(c1ccc(F)cc1)N(C1CCOCC1)C2=O (centres undefined) | 0.868
44 | c1ccc(CCCc2cccnc2CCCc2ccccc2)cc1 | 1.05
45 | C=CCN1C(=O)c2[nH]nc(C)c2C1c1ccc(C)cc1 (centres undefined) | 0.971
46 | CS(=O)(=O)Oc1c(CC23CCCCC2=Nc2cc(F)cc(F)c23)occc1=O (centres undefined) | 1.04
47 | Clc1cccc(CCCc2ccccc2)n1 | 1.18
48 | COCCNC1=NC(c2ccccc2)C(C(=O)OC)=C(C)N1Cc1ccc(C(F)(F)F)cc1 (centres undefined) | 0.958
49 | COC(=O)C1=C(C(=O)OC)[C@@H](c2ccc(OC)cc2)O[C@@H]1c1ccc(Cl)cc1 | 1.37
50 | COCOc1ccccc1C(=O)/C=C/c1ccccc1 | 1.09
51 | CC(C)CC1=NCCNC2=C1C(c1ccccc1)N(c1ccccc1)C2=O (centres undefined) | 0.879
52 | COc1ccc(Cn2nc(C)cc2Nc2cc(O)cc(O)c2C(=O)N2Cc3ccc(N4CCN(C)CC4)cc3C2)cc1 | 1.07
53 | COc1ccc(N2C(=O)C3=C(C(C)=NCC(C)(C)N3)C2c2ccc(Br)cc2)cc1 (centres undefined) | 1.03
54 | COC(=O)C1=C(C)N(C)C(NCC(C)C)=NC1c1ccc(Cl)cc1 (centres undefined) | 1.06
55 | C=CCN1C(=O)C2=C(C(c3ccccc3)=NCC(C)(C)N2)C1c1ccc(F)cc1 (centres undefined) | 1.07
56 | COc1ccc(Cn2nc(C)cc2Nc2cc(O)cc(O)c2C(=O)N2Cc3cn[nH]c3C2)cc1 | 1.19
57 | CC1=NCCN(C)C2=C1C(c1cccc(C(F)(F)F)c1)NC2=O (centres undefined) | 0.98
58 | CC(C)N1CCC[C@@H](CN(C)Cc2ccccc2)C1 | 1.05
59 | COc1cc(OC)c2c(c1)O[C@@]1(c3ccc(Br)cc3)[C@H](c3ccccc3)[C@@H](C(=O)N(C)OC)[C@@H](O)[C@@]21O | 0.826
60 | C=CCc1cc(OC)c(OC)cc1C(c1ccccc1)c1ccccc1O (centres undefined) | 1.12
61 | CC(C)n1nccc1Nc1cc(O)cc(O)c1C(=O)N1Cc2ccccc2C1 | 1.09
62 | COc1ccc([C@@]23Oc4cc(OC)cc(OC)c4[C@]2(O)[C@H](O)[C@H](C(=O)c2oc4ccccc4c2C)[C@H]3c2ccccc2)cc1 | 1.03
63 | COCCN1C(=O)N[C@@H](c2cccc(F)c2)C(C(C)=O)=C1C | 0.967

Row | Compound | growth
64 | C#CCOC[C@@H](NC(=O)CC1(CNC(=O)OCC2c3ccccc3-c3ccccc32)CCCCC1)c1ccccc1 | 1.2
65 | COC(=O)N[C@@H](c1cccc(C)c1)C(C(C)=O)C(=O)OC (some centres undefined) | 1.06
66 | COc1ccc(Cn2nc(-c3ccccc3)cc2Nc2cc(O)cc(O)c2C(=O)N(C)Cc2cccnc2)cc1 | 1.02
67 | CC(C)Cc1n[nH]c2c1C(c1cccc(C(F)(F)F)c1)N(c1ccc(Br)cc1)C2=O (centres undefined) | 0.985
68 | CCOC(=S)SCCCOS(=O)(=O)NC(C)(C)C | 1.05
69 | C=C1CC[C@H]2[C@@H](C(=O)C(C)C)C3=C(O[C@]2(C)CC[C@@H]2[C@@H]1CC2(C)C)C(C)(C)C(=O)C(C)(C)C3=O | 0.994
70 | COc1c(F)cc(C2NC(=O)N3CCC=CC3=C2C(C)=O)c(C)c1Cl (centres undefined) | 0.885
71 | Cc1nn(Cc2ccccc2)c2c1C(c1ccccc1)NC2=O (centres undefined) | 1
72 | CC(C)(C)n1nc(-c2ccccc2)cc1N | 1.16
73 | COc1ccc(C(=O)Nc2ccc(CCN3CCc4cc(OC)c(OC)cc4C3)cc2)c(NC(=O)c2cnc3ccccc3c2)c1 | 1.71
74 | COc1cc2c(c(OC)c1OC)CC(C)=C(C)CC2NC(=O)C(F)(F)F (centres undefined) | 1.15
75 | Nc1c(-c2ccc(F)cc2)cnc2c(-c3ccc(F)cc3)cnn12 | 1.35
76 | COc1cc(OC)c2c(=O)c3c(C[C@H]4[C@H](c5cc(OC)c(O)c6oc7cc(OC)cc(OC)c7c(=O)c56)C=C(C)CC4(C)C)cc(OC)c(O)c3oc2c1 | 0.969
77 | COC(=O)c1cc2c(c3c4cc(F)ccc4n(S(=O)(=O)c4ccc(C)cc4)c13)C(=O)N(Cc1ccc(C)cc1)C2 | 0.992
78 | CC1=C(C)CC2(C(=O)C(C)(C)C(=O)C(C)(C)C2=O)[C@H](C(=O)C(C)C)C1 | 0.981
79 | O=C(O)Cn1nnc(-c2ccc(CO)cc2)n1 | 1.25
80 | Cc1ccc(C2C3=C(C(=O)N2c2ccccc2)N(C)CCN=C3C(C)C)cc1 (centres undefined) | 1.03
81 | CC(C)[C@H]1CC[C@H](C)C[C@@H]1OS(=O)(=O)NCC(F)(F)F | 1.11
82 | COc1ccc(N2C(=O)c3c(c(-c4ccccc4)nn3C)C2c2ccccc2)cc1 (centres undefined) | 0.945
83 | Cc1c(C)c(C(=O)O)c(O)c(C)c1O | 1.31
84 | C[C@H]1/C=C/CC(=O)N[C@H](c2ccc(C(F)(F)F)cc2)CC(=O)N[C@@H](Cc2c[nH]c3ccccc23)C(=O)N[C@H]1c1ccccc1 | 1.06
